In the supplement of paper PMC9446081:
About 220 (0.56%) of roughly 39,000 compounds showed activity. The list shows a part of the results.

Test system: Escherichia coli K-12 BW25113
Experiment: relative growth (OD600 normalised to plate interquartile mean) (fraction); higher = less growth inhibition, active = 0.2 or less
Settings: 50 µM; LB; incubation time: overnight (16-24 h)
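Note: static incubation at 37 °C against the wild-type strain, values averaged over two biological replicates.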

SMILES | relative growth
O=C(C[C@H]1C[C@H]2c3cc(NS(=O)(=O)c4ccc(F)cc4)ccc3O[C@H]2[C@@H](CO)O1)NCC(F)(F)F | inactive: 1
C[C@H](CO)N1C[C@H](C)[C@H](CN(C)Cc2ccncc2)Oc2c(NC(=O)C3CCOCC3)cccc2C1=O | inactive: 1.01
CCS(=O)(=O)N1CC[C@]2(CC1)CN([C@@H](CO)c1c2c2ccc(cc2n1C)OC)S(=O)(=O)c1ccccc1 | inactive: 1
C=CCNc1ncnc2c1cnn2C | inactive: 1
CCOC(=O)[C@H]1CN(C(C)(C)C)C(=O)C1=O | inactive: 1.01
O=C(C[C@H]1CC[C@H]2[C@@H](COC[C@H](O)CN2S(=O)(=O)c2ccccc2)O1)N1CCOCC1 | inactive: 0.991
COc1ccc(CN(C)C[C@@H]2OCCCC[C@@H](C)Oc3ccc(NS(=O)(=O)c4ccc(Cl)cc4)cc3C(=O)N([C@H](C)CO)C[C@@H]2C)cc1 | inactive: 0.995
C[C@H](CO)N1C[C@H](C)[C@H](CN(C)S(=O)(=O)c2ccc(Cl)cc2)OCCCC[C@H](C)Oc2ccc(NC(=O)NC3CCCCC3)cc2C1=O | inactive: 1.02
CCOc1nc2cccc(C(=O)OCc3oc(=O)oc3C)c2n1Cc1ccc(-c2ccccc2-c2noc([O-])n2)cc1.[K+] | inactive: 1.17
C[C@H](CO)N1C[C@H](C)[C@@H](CN(C)Cc2ccc(C(=O)O)cc2)OCCCC[C@H](C)Oc2ccc(NS(=O)(=O)c3ccc(Cl)cc3)cc2C1=O | inactive: 1.01
Cc1c(O[C@@H]2O[C@H](COC(=O)C[C@@](C)(O)CC(=O)O)C[C@H](O)[C@H]2O)occc1=O | inactive: 0.996
Cc1ccc(S(=O)(=O)Nc2ccc3c(c2)C(=O)N([C@H](C)CO)C[C@H](C)[C@@H](CN(C)C(=O)Nc2ccc4c(c2)OCO4)OCCCC[C@@H](C)O3)cc1 | inactive: 1.06
C[C@H](CO)N1C[C@H](C)[C@@H](CN(C)Cc2ccc(Cl)c(Cl)c2)OCCCC[C@H](C)Oc2ccc(NC(=O)C3CCCCC3)cc2C1=O | inactive: 1.02
CCC(=O)Nc1ccc2c(c1)C(=O)N(C)C[C@H](OC)[C@H](C)CN(C(=O)CN1CCOCC1)[C@@H](C)CO2 | inactive: 1.01
CO[C@@H]1CN(C)C(=O)c2ccc(NC(=O)C3CC3)cc2OC[C@H](C)N(C(=O)C2CCOCC2)C[C@@H]1C | inactive: 1
CC(C)(C)c1cc(NC(=O)Nc2ccc(Oc3ccnc4nc(O)cnc34)cc2F)n(-c2ccccc2)n1 | inactive: 0.916
Cc1ccc(S(=O)(=O)Nc2ccc3c(c2)C(=O)N([C@H](C)CO)C[C@H](C)[C@H](CN(C)S(=O)(=O)c2ccc(C)cc2)OCCCC[C@H](C)O3)cc1 | inactive: 1.03
Cc1noc(C)c1NC(=O)N(C)C[C@@H]1Oc2ccc(NS(=O)(=O)c3c(C)noc3C)cc2CC(=O)N([C@H](C)CO)C[C@H]1C | inactive: 0.985
O=C(C[C@@H]1CC[C@H]2[C@@H](COC[C@@H](O)CN2S(=O)(=O)c2ccc(F)cc2)O1)N[C@@H]1CCN(Cc2ccccc2)C1 | inactive: 0.989
C[C@@H]1CN([C@H](C)CO)C(=O)c2cccc(NS(=O)(=O)c3cn(C)cn3)c2O[C@H]1CN(C)Cc1ccc(C(=O)O)cc1 | inactive: 1.04
COc1ccc(CN(C)C[C@@H]2Oc3c(NC(=O)c4cc(C)nn4C)cccc3C(=O)N([C@H](C)CO)C[C@H]2C)cc1 | inactive: 1.01

SMILES | relative growth
COCCOC(=O)N1C(=O)[C@@]2(c3cc(C#CCC(C(=O)OC)C(=O)OC)ccc31)[C@H](c1ccccc1OCCO)N1[C@H](c3ccccc3)[C@H](c3ccccc3)OC(=O)[C@H]1[C@@H]2C(=O)Nc1nc2ccccc2s1 | inactive: 0.997
O=C(C[C@@H]1CC=CCC[C@H](Cc2ccc(F)cc2)C(=O)OCCNC1=O)N[C@@H](CO)Cc1ccccc1 | inactive: 1.01
C/C(=C\CO)CC[C@H](C)CCC[C@H](C)CCCC(C)C | inactive: 1.04
C[C@H](CO)N1C[C@H](C)[C@H](CN(C)Cc2ccc(C(=O)O)cc2)Oc2c(NC(=O)C3CCOCC3)cccc2C1=O | inactive: 0.99
COCCNC(=O)C[C@H]1CC[C@H]2[C@@H](COc3ccc(NS(=O)(=O)c4ccc(Cl)cc4)cc3C(=O)N2C)O1 | inactive: 0.979
C[C@H](CO)N1C[C@H](C)[C@@H](CN(C)S(=O)(=O)c2ccc(Cl)cc2)Oc2ccc(NC(=O)C3CC3)cc2C1=O | inactive: 1
CC(C)CC#Cc1ccc2c(c1)O[C@H](CN(C)C(=O)NC1CCCC1)[C@@H](C)CN([C@@H](C)CO)S2(=O)=O | inactive: 0.986
CN1C(=O)c2cc(NC(=O)C3CCOCC3)ccc2OC[C@H]2O[C@@H](CC(=O)NCc3ccccc3F)CC[C@@H]21 | inactive: 0.944
C[C@H](CO)N1C[C@H](C)[C@H](CN(C)C(=O)Nc2ccc(F)cc2)Oc2ccc(NC(=O)CCCN(C)C)cc2C1=O | inactive: 1.02
COc1ccccc1S(=O)(=O)N[C@H]1CC[C@@H](CCNC(=O)C2CC2)O[C@H]1CO | inactive: 1.01
CCOC(=O)c1snc2c(=O)nc[nH]c12 | inactive: 1
C[C@H]1CN([C@@H](C)CO)C(=O)c2cc(NC(=O)NC3CCCCC3)ccc2O[C@@H]1CN(C)C(=O)Nc1cccc2ccccc12 | inactive: 0.853
CNS(=O)(=O)c1cc(OC)ccc1OC | inactive: 0.918
COc1ccc(NC(=O)N(C)C[C@H]2OCCCC[C@H](C)Oc3ccc(NC(=O)c4ccccc4)cc3C(=O)N([C@H](C)CO)C[C@@H]2C)cc1 | inactive: 1
COc1ccc(S(=O)(=O)N(C)C[C@H]2OCCCC[C@@H](C)Oc3ccc(NC(=O)Nc4ccc(F)cc4)cc3C(=O)N([C@H](C)CO)C[C@H]2C)cc1 | inactive: 1.01
C[C@@H]1CN([C@H](C)CO)S(=O)(=O)c2ccc(C#CC3(O)CCCC3)cc2O[C@H]1CN(C)C(=O)c1ccccc1 | inactive: 0.997
COc1cccc(S(=O)(=O)N(C)C[C@H]2OCc3cnnn3CCCC(=O)N([C@H](C)CO)C[C@@H]2C)c1 | inactive: 0.961
CN(C)Cc1cn(CC[C@H]2CC[C@@H](NC(=O)Cc3cccnc3)[C@H](CO)O2)nn1 | inactive: 1
CC(C)CC#Cc1ccc2c(c1)O[C@@H](CN(C)C(=O)c1cnccn1)[C@H](C)CN([C@@H](C)CO)S2(=O)=O | inactive: 0.997
C[C@@H]1CCCCO[C@H](CN(C)S(C)(=O)=O)[C@H](C)CN([C@@H](C)CO)C(=O)c2cc(NS(=O)(=O)c3ccccc3)ccc2O1 | inactive: 1
CC(=O)Nc1cc2c(cc1N)OCCO2 | inactive: 0.968

SMILES | relative growth
CC(C)NC(=O)Nc1ccc2c(c1)C(=O)N([C@@H](C)CO)C[C@@H](C)[C@@H](CN(C)C(=O)Nc1cccc3ccccc13)OCCCC[C@@H](C)O2 | inactive: 0.992
C[C@H]1CN([C@@H](C)CO)C(=O)Cc2cc(NS(=O)(=O)c3cccs3)ccc2O[C@H]1CN(C)S(=O)(=O)c1ccccc1 | inactive: 1.01
COc1ccc(CN(C)C[C@@H]2OCCCC[C@H](C)Oc3ccc(NS(=O)(=O)c4ccc(F)cc4)cc3C(=O)N([C@@H](C)CO)C[C@H]2C)cc1 | inactive: 1.02
C[C@@H]1CN([C@H](C)CO)C(=O)Cc2cc(NC(=O)Cn3cnnn3)ccc2O[C@@H]1CN(C)CC1CCCCC1 | inactive: 0.962
CC(C)CCC(=O)N1C[C@@H]2c3nc(N4CCOCC4)ncc3CS(=O)(=O)[C@H]2C1 | inactive: 0.974
CCCSc1ccc2nc(NC(=O)OC)[nH]c2c1 | inactive: 1.06
CO[C@H]1CN(C)C(=O)c2ccc(NS(C)(=O)=O)cc2OC[C@H](C)N(C(=O)CN(C)C)C[C@@H]1C | inactive: 0.988
COc1ccc(S(=O)(=O)N(C)C[C@H]2OCCCC[C@H](C)Oc3ccc(NC(=O)Nc4cccc5ccccc45)cc3C(=O)N([C@@H](C)CO)C[C@@H]2C)cc1 | inactive: 1.05
CN(C)CC#Cc1ccc([C@H]2[C@@H](CO)N3C(=O)CN(C(=O)CN(C)C)C[C@H]23)cc1 | inactive: 0.99
C[C@H](CO)N1C[C@H](C)[C@@H](CN(C)S(=O)(=O)c2cccs2)Oc2ccc(NC(=O)Cc3ccccc3)cc2CC1=O | inactive: 0.957
COc1ccc(NC(=O)Nc2ccc3c(c2)C(=O)N([C@H](C)CO)C[C@H](C)[C@H](CN(C)Cc2ccc(-c4ccccc4)cc2)O3)cc1 | inactive: 1
CC(=O)NC1=NC(=O)CS1 | inactive: 0.99
COc1ncc(-c2nc(N3CCOCC3)nc3c(CN4CCC(C(C)(C)O)CC4)cc(F)cc23)cc1NS(C)(=O)=O | inactive: 1.01
C[C@@H]1CN([C@H](C)CO)C(=O)c2cc(NC(=O)Nc3cccc4ccccc34)ccc2O[C@@H](C)CCCCO[C@H]1CN(C)S(=O)(=O)c1ccc(F)cc1 | inactive: 1.05
C[C@H](CO)N1C[C@H](C)[C@H](CN(C)S(=O)(=O)c2ccccc2F)Oc2ncc(C#Cc3ccccc3F)cc2C1=O | inactive: 0.997
CN(C)CCCNC(=O)C[C@H]1CC[C@@H]2[C@H](COc3ccc(NC(=O)c4ccccc4F)cc3C(=O)N2C)O1 | inactive: 1
COCc1n[nH]c(C)c1C(=O)O | inactive: 0.982
C[C@H](CO)N1C[C@H](C)[C@H](CN(C)S(=O)(=O)c2ccc(Cl)cc2)Oc2ccc(NC(=O)CCCN(C)C)cc2CC1=O | inactive: 1.02
Cc1ccc(S(=O)(=O)N(C)C[C@@H]2OCCCC[C@H](C)Oc3ccc(NC(=O)Cc4ccccc4)cc3C(=O)N([C@@H](C)CO)C[C@H]2C)cc1 | inactive: 1.03
